According to the supplement of paper PMC12217912:
Some of the results follow. The full chains were built here from the parent and the listed change. Inactive controls read about 0.05.

B1: TEV protease; numbered along this chain (parent)
chain: MGESLFKGPRDYNPISSSICHLTNESDGHTTSLYGIGFGPFIITNKHLFRRNNGTLVVQSLHGVFKVKDTTTLQQHLVDGRDMIIIRMPKDFPPFPQKLKFREPQREERICLVTTNFQTKSMSSMVSDTSCTFPSGDGIFWKHWIQTKDGQCGSPLVSTRDGFIVGIHSASNFTNTNNYFTSVPKNFMELLTNQEAQQWVSGWRLNADSVLWGGHKVFMVKPEEPFQPVKEATQL

Variants of: B1
Assay: raw area under fraction-flipped curve 0-4 h after induction (AUC4h, not background-subtracted), DNA-recorder readout of cleavage of the substrate (dimensionless); higher = more cleavage of the substrate by the protease variant
Settings: temperature: 34 °C; time window: 0-4 h after rhamnose induction
Experimental: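 In vivo DNA recorder in E. coli TOP10(DE3) ΔrhaA at 34 °C. Each TEVp single-site mutant (parent TEVp 0) is paired with a single-site variant of the 7-mer TEVs (canonical ENLYFQ|S). The substrate sits between flexible linkers in a Bxb1-sfGFP-TEVs-SsrA fusion, so cleavage stabilises Bxb1 and speeds flipping of a recombination array, read by NGS. The value is the raw area under the fraction-flipped curve over 0-4 h after rhamnose induction (AUC4h), with ≥20 reads per time point. It is not background-subtracted; inactive controls average about 0.047.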
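Further: Bxb1 expression induced with 0.2% (w/v) L-rhamnose at OD600 near 0.5, cultures sampled hourly, flipped fraction per protease–substrate barcode pair counted by paired-end Illumina sequencing.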

Variant | area with substrate ENLYFCS | area with substrate ENLYFES | area with substrate ENLYFFS | area with substrate ENLYFIS | area with substrate ENLYFKS | area with substrate ENLYFLS | area with substrate ENLYFMS | area with substrate ENLYFPS | area with substrate ENLYFRS | area with substrate ENLYFSS | area with substrate ENLYFWS | area with substrate ENLYFYS | area with substrate ENLYFDS | area with substrate ENLYFGS | area with substrate ENLYFHS | area with substrate ENLYFNS | area with substrate ENLYFTS | area with substrate ENLYFVS
D91P | 0.0623 | 0.0254 | 0.0744 | 0.0583 | 0.0641 | 0.0498 | 0.0623 | 0.054 | 0.0437 | 0.0487 | 0.0732 | 0.0558 |  |  |  |  |  | 
R102A | 0.0547 | 0.058 | 0.0636 | 0.046 | 0.0532 |  | 0.0457 | 0.0515 | 0.0558 | 0.0378 | 0.0509 |  | 0.0623 | 0.0595 | 0.0594 | 0.0457 | 0.0466 | 0.0533
E103C | 0.067 | 0.0579 | 0.0732 | 0.0502 | 0.0329 |  | 0.0819 | 0.0647 |  |  |  |  | 0.0629 |  |  | 0.0545 | 0.0756 | 
E103Q | 0.0648 | 0.0568 | 0.0714 | 0.0553 | 0.0478 | 0.043 | 0.0622 | 0.0661 | 0.0599 |  | 0.0608 |  |  | 0.0672 | 0.0644 | 0.0471 | 0.0532 | 
Q105C | 0.0463 | 0.0682 | 0.0968 | 0.0532 | 0.0713 | 0.0559 | 0.0707 | 0.0625 | 0.0565 |  | 0.0589 |  | 0.0495 |  |  | 0.0626 | 0.069 | 0.049
C111T | 0.065 |  | 0.0944 | 0.0617 | 0.0753 |  | 0.0905 | 0.0592 | 0.0514 | 0.06 | 0.0486 | 0.0302 | 0.0517 | 0.0602 | 0.0707 | 0.0654 |  | 
T114F | 0.0533 |  | 0.0862 | 0.0613 | 0.0555 | 0.0576 | 0.0711 | 0.0601 | 0.0071 | 0.0949 |  | 0.0762 |  | 0.0882 |  | 0.059 |  | 0.0291
F117H | 0.0593 | 0.0624 | 0.0634 | 0.0542 | 0.0682 | 0.0558 | 0.0822 | 0.0573 | 0.0599 | 0.0597 | 0.0548 | 0.0583 | 0.05 |  | 0.0657 |  | 0.0665 | 0.0653
M125N | 0.0726 | 0.0756 | 0.0719 | 0.0555 | 0.0531 | 0.0616 |  | 0.0667 | 0.0615 | 0.0579 | 0.0679 | 0.0715 | 0.0636 | 0.0598 | 0.0604 | 0.0644 | 0.0599 | 0.063
V126F | 0.0588 | 0.0402 | 0.084 | 0.0599 | 0.0712 |  | 0.0938 | 0.0533 | 0.059 |  | 0.0485 | 0.0344 |  | 0.0553 | 0.0257 | 0.0568 |  | 0.0683
V126M | 0.0681 | 0.0613 | 0.0645 | 0.0544 | 0.0652 | 0.0592 | 0.0741 | 0.0742 | 0.0608 | 0.0578 | 0.057 | 0.0742 | 0.0507 |  | 0.0366 | 0.0628 | 0.0594 | 
V126N | 0.0736 | 0.0592 | 0.0671 | 0.0664 | 0.0593 | 0.061 | 0.0699 | 0.054 | 0.0474 | 0.0896 | 0.0468 | 0.0536 |  | 0.0733 | 0.0632 | 0.0866 | 0.0483 | 0.0554
